Reference: the supplement of paper PMC10369915
This is one part of the list. No stated cut-off is given here; in the data, active = 3.2 or more and inactive = the rest. Most of these values are background signal.

molecular target: SHP2 C-SH2 domain E139D; assay: enrichment score (SH2-bound / input frequency) (ratio); bacterial display of known human phosphotyrosine sites (pTyr-Var adds point mutants) read by sequencing; higher = stronger binding; tyrosines were phosphorylated by kinases first; settings: peptide library: pTyr-Var
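Further: displayed peptides selected on beads carrying the immobilized SH2 domain, with library peptides lacking any tyrosine serving as negative controls.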

Binder	enrichment score
KDHPDYKFQLR [SOX10_Y171_P175L_YF]	inactive: 1.07
DVFVSYDFGKS [SORL1_Y139_YF]	inactive: 1.06
EDGCIYPATIA [SMN1_Y109]	inactive: 0.709
NQDRTYYERVR [SPEN_Y632_S635R]	inactive: 0.576
KSEMSYIDGEK [SORBS1_Y485]	inactive: 0.619
SRPTQYSSFSC [SPEM2_Y104]	inactive: 0.809
KHMADYPDFKF [SOX11_Y113_YF]	inactive: 0.785
KSSDVYVSYDY [SORL1_Y136]	inactive: 0.834
GRLGEYDIDEV [SMS_Y134_V132G]	inactive: 0.92
DMLTLYVNTAA [SMCHD1_Y403_Q400L]	inactive: 1.91
KDPPDYKFQPR [SOX9_Y172_H169P_YF]	inactive: 0.8
QMRLKYSQSDL [SMC1A_Y714]	inactive: 0.847
LTYHMYADPNF [SOS1_Y618]	inactive: 1.35
RPSELYFSKIS [SMG1_Y2253_G2258S_YF]	inactive: 1.56
DFKIIYIVPMR [SNRNP200_Y540_A542V]	active: 3.37
EAMSDYKKQLR [SPATA18_Y229]	inactive: 0.722
NQDRTYYESVR [SPEN_Y632]	inactive: 0.749
ADFPDYKFRPR [SOX11_Y116_YF]	inactive: 1.03
KDHPDYKFQPR [SOX10_Y171_YF]	inactive: 1

molecular target: SHP2 C-SH2 domain wild-type; assay: as above; settings: peptide library: pTyr-Var

Binder	enrichment score
KDHPDYKFQLR [SOX10_Y171_P175L_YF]	inactive: 0.806
DVFVSYDFGKS [SORL1_Y139_YF]	inactive: 0.826
EDGCIYPATIA [SMN1_Y109]	inactive: 0.589
NQDRTYYERVR [SPEN_Y632_S635R]	inactive: 0.7
KSEMSYIDGEK [SORBS1_Y485]	inactive: 0.628
SRPTQYSSFSC [SPEM2_Y104]	inactive: 1.3
KHMADYPDFKF [SOX11_Y113_YF]	inactive: 0.689
KSSDVYVSYDY [SORL1_Y136]	inactive: 0.631
GRLGEYDIDEV [SMS_Y134_V132G]	inactive: 0.939
DMLTLYVNTAA [SMCHD1_Y403_Q400L]	inactive: 1.63
KDPPDYKFQPR [SOX9_Y172_H169P_YF]	inactive: 0.711
QMRLKYSQSDL [SMC1A_Y714]	inactive: 0.752
LTYHMYADPNF [SOS1_Y618]	inactive: 1.52
RPSELYFSKIS [SMG1_Y2253_G2258S_YF]	inactive: 0.962
DFKIIYIVPMR [SNRNP200_Y540_A542V]	inactive: 3.08
EAMSDYKKQLR [SPATA18_Y229]	inactive: 0.426
NQDRTYYESVR [SPEN_Y632]	inactive: 0.778
ADFPDYKFRPR [SOX11_Y116_YF]	inactive: 0.652
KDHPDYKFQPR [SOX10_Y171_YF]	inactive: 0.785

molecular target: SHP2 N-SH2 domain L43F; assay: as above; settings: peptide library: pTyr-Var

Binder	enrichment score
KDHPDYKFQLR [SOX10_Y171_P175L_YF]	inactive: 1.05
DVFVSYDFGKS [SORL1_Y139_YF]	inactive: 0.867
EDGCIYPATIA [SMN1_Y109]	inactive: 0.77
NQDRTYYERVR [SPEN_Y632_S635R]	inactive: 0.528
KSEMSYIDGEK [SORBS1_Y485]	inactive: 0.532
SRPTQYSSFSC [SPEM2_Y104]	inactive: 0.703
KHMADYPDFKF [SOX11_Y113_YF]	inactive: 0.779
KSSDVYVSYDY [SORL1_Y136]	inactive: 0.709
GRLGEYDIDEV [SMS_Y134_V132G]	inactive: 1.05
DMLTLYVNTAA [SMCHD1_Y403_Q400L]	inactive: 1.4
KDPPDYKFQPR [SOX9_Y172_H169P_YF]	inactive: 0.739
QMRLKYSQSDL [SMC1A_Y714]	inactive: 0.76
LTYHMYADPNF [SOS1_Y618]	inactive: 1.86
RPSELYFSKIS [SMG1_Y2253_G2258S_YF]	inactive: 1.04
DFKIIYIVPMR [SNRNP200_Y540_A542V]	inactive: 3.05
EAMSDYKKQLR [SPATA18_Y229]	inactive: 0.506
NQDRTYYESVR [SPEN_Y632]	inactive: 0.577
ADFPDYKFRPR [SOX11_Y116_YF]	inactive: 0.692
KDHPDYKFQPR [SOX10_Y171_YF]	inactive: 0.859

molecular target: SHP2 N-SH2 domain T42A; assay: as above; settings: peptide library: pTyr-Var

Binder	enrichment score
KDHPDYKFQLR [SOX10_Y171_P175L_YF]	inactive: 0.956
DVFVSYDFGKS [SORL1_Y139_YF]	inactive: 0.749
EDGCIYPATIA [SMN1_Y109]	inactive: 0.6
NQDRTYYERVR [SPEN_Y632_S635R]	inactive: 0.582
KSEMSYIDGEK [SORBS1_Y485]	inactive: 0.457
SRPTQYSSFSC [SPEM2_Y104]	inactive: 0.832
KHMADYPDFKF [SOX11_Y113_YF]	inactive: 0.621
KSSDVYVSYDY [SORL1_Y136]	inactive: 0.578
GRLGEYDIDEV [SMS_Y134_V132G]	inactive: 0.874
DMLTLYVNTAA [SMCHD1_Y403_Q400L]	inactive: 2.01
KDPPDYKFQPR [SOX9_Y172_H169P_YF]	inactive: 0.762
QMRLKYSQSDL [SMC1A_Y714]	inactive: 0.667
LTYHMYADPNF [SOS1_Y618]	active: 3.64
RPSELYFSKIS [SMG1_Y2253_G2258S_YF]	inactive: 0.649
DFKIIYIVPMR [SNRNP200_Y540_A542V]	inactive: 2.94
EAMSDYKKQLR [SPATA18_Y229]	inactive: 0.603
NQDRTYYESVR [SPEN_Y632]	inactive: 0.709
ADFPDYKFRPR [SOX11_Y116_YF]	inactive: 0.695
KDHPDYKFQPR [SOX10_Y171_YF]	inactive: 0.765

molecular target: SHP2 N-SH2 domain T52S; assay: as above; settings: peptide library: pTyr-Var

Binder	enrichment score
KDHPDYKFQLR [SOX10_Y171_P175L_YF]	inactive: 0.933
DVFVSYDFGKS [SORL1_Y139_YF]	inactive: 0.977
EDGCIYPATIA [SMN1_Y109]	inactive: 0.871
NQDRTYYERVR [SPEN_Y632_S635R]	inactive: 0.528
KSEMSYIDGEK [SORBS1_Y485]	inactive: 0.505
SRPTQYSSFSC [SPEM2_Y104]	inactive: 0.508
KHMADYPDFKF [SOX11_Y113_YF]	inactive: 0.712
KSSDVYVSYDY [SORL1_Y136]	inactive: 0.664
GRLGEYDIDEV [SMS_Y134_V132G]	inactive: 1.13
DMLTLYVNTAA [SMCHD1_Y403_Q400L]	inactive: 1.46
KDPPDYKFQPR [SOX9_Y172_H169P_YF]	inactive: 0.919
QMRLKYSQSDL [SMC1A_Y714]	inactive: 0.593
LTYHMYADPNF [SOS1_Y618]	inactive: 1.69
RPSELYFSKIS [SMG1_Y2253_G2258S_YF]	inactive: 1.11
DFKIIYIVPMR [SNRNP200_Y540_A542V]	active: 3.21
EAMSDYKKQLR [SPATA18_Y229]	inactive: 0.693
NQDRTYYESVR [SPEN_Y632]	inactive: 0.591
ADFPDYKFRPR [SOX11_Y116_YF]	inactive: 0.78
KDHPDYKFQPR [SOX10_Y171_YF]	inactive: 0.803

molecular target: SHP2 N-SH2 domain wild-type; assay: as above; settings: peptide library: pTyr-Var

Binder	enrichment score
KDHPDYKFQLR [SOX10_Y171_P175L_YF]	inactive: 0.947
DVFVSYDFGKS [SORL1_Y139_YF]	inactive: 0.89
EDGCIYPATIA [SMN1_Y109]	inactive: 0.881
NQDRTYYERVR [SPEN_Y632_S635R]	inactive: 0.694
KSEMSYIDGEK [SORBS1_Y485]	inactive: 0.703
SRPTQYSSFSC [SPEM2_Y104]	inactive: 0.775
KHMADYPDFKF [SOX11_Y113_YF]	inactive: 0.74
KSSDVYVSYDY [SORL1_Y136]	inactive: 0.812
GRLGEYDIDEV [SMS_Y134_V132G]	inactive: 1.07
DMLTLYVNTAA [SMCHD1_Y403_Q400L]	inactive: 1.63
KDPPDYKFQPR [SOX9_Y172_H169P_YF]	inactive: 0.744
QMRLKYSQSDL [SMC1A_Y714]	inactive: 0.595
LTYHMYADPNF [SOS1_Y618]	inactive: 1.21
RPSELYFSKIS [SMG1_Y2253_G2258S_YF]	inactive: 0.905
DFKIIYIVPMR [SNRNP200_Y540_A542V]	inactive: 2.72
EAMSDYKKQLR [SPATA18_Y229]	inactive: 0.673
NQDRTYYESVR [SPEN_Y632]	inactive: 0.908
ADFPDYKFRPR [SOX11_Y116_YF]	inactive: 1.01
KDHPDYKFQPR [SOX10_Y171_YF]	inactive: 1.03
